Screen size: about 310,000 compounds; about 2,200 (0.71%) showed an effect of 50% or more. Effects have a minus sign here. The list shows a part of the results.
biological target: human ether-à-go-go-related gene (hERG) potassium channel (human, UniProt Q12809); experiment: primary screen, population patch clamp on CHO cells stably expressing hERG
Sequence (Q12809 whole entry, looked up): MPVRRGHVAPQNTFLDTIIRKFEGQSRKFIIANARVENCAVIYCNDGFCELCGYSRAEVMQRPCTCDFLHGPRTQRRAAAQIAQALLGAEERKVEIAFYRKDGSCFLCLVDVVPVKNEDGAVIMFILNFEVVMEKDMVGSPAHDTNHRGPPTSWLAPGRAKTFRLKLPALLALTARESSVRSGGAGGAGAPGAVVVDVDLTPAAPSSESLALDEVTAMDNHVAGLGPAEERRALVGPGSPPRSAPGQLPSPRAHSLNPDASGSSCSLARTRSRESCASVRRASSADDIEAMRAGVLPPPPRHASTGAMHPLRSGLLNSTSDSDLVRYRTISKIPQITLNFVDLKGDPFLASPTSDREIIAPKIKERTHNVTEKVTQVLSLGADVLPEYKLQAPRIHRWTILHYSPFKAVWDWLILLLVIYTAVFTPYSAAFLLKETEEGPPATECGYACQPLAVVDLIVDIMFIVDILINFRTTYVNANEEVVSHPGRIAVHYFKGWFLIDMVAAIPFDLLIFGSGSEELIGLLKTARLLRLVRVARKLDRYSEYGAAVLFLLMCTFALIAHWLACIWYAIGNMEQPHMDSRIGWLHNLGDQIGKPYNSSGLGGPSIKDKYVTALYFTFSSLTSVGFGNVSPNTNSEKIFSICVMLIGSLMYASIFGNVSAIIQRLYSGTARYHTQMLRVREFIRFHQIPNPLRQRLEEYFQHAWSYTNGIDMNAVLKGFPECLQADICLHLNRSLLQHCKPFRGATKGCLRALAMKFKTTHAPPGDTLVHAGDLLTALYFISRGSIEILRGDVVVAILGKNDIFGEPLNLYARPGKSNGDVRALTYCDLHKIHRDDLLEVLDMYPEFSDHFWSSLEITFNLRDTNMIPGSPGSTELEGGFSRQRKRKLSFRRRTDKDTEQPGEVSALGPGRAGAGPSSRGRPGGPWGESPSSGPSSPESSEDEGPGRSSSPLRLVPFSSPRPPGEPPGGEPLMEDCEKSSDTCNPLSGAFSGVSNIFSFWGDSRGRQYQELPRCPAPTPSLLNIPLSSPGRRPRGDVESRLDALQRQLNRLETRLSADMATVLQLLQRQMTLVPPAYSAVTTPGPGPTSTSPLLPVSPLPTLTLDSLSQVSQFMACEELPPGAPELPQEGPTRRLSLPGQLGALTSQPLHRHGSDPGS

Row | SMILES | hERG current change (%, negative = inhibition) at 1uM [%]
1 | COCCCn1c(N)c(C(=O)NCCC(C)C)c2nc3ccccc3nc21 | -24.6
2 | O=C(NCCN1CCOCC1)c1cccc(NS(=O)(=O)c2ccc(Br)cc2)c1 | -1.47
3 | CC(C)NC(=O)c1ccc2c(c1)N(Cc1ccccc1)C(=O)C(C)(C)O2 | 17.7
4 | Cc1ccc(NC(=O)CSc2ccc3c(c2)OCCO3)c(O)c1 | 3.26
5 | CCC1SC2=NC(C)=C(C(=O)OCCOC)C(c3ccc(C(=O)OC)cc3)N2C1=O (stereo not shown) | 0.478
6 | COC(=O)c1cn(NC(=O)c2cc([N+](=O)[O-])ccc2F)c(=O)c2ccccc12 | 6.49
7 | C=C1c2c(Cl)ccc(O)c2C(O)=C2C(=O)[C@]3(O)C(O)=C(C(N)=O)C(=O)[C@@H](N(C)C)[C@@H]3[C@@H](O)C12.O=C(O)c1cc(S(=O)(=O)O)ccc1O (stereo partly shown) | 8.12
8 | N#Cc1cccc(NC(=O)CSc2nnc(-c3n[nH]c4ccccc34)o2)c1 | 14.8
9 | CC(C)n1c(SCC(=O)N2CCCCC2)nc2c1c(=O)n(C)c(=O)n2C | 8.64
10 | CCC(=O)N1CCc2cc(Br)cc(S(=O)(=O)NC3CCN(Cc4ccccc4)CC3)c21 | 8.26
11 | Cc1c(C(=O)Nc2ccc3nc(N4CCOCC4)sc3c2)oc2ccccc12 | 12.5
12 | COc1ccc(S(=O)(=O)n2nc(OC(=O)c3cccs3)cc2NC(=O)c2cccs2)cc1 | 1.73
13 | CCCC[C@H]1COCCS(=O)(=O)N1Cc1ccc(F)cc1 | 16.1
14 | COc1ccc(S(=O)(=O)N2CCC(C(=O)c3ccc4c(c3)OCCO4)CC2)cc1 | 0.357
15 | COc1ccccc1/C=N/NC(=O)c1cc2c(ccc3ccccc32)o1 | 8.3
16 | CN(C)C(/C=C/Nc1ccc(F)cc1F)=C(C#N)C#N | 9.83
17 | COP(C)(=O)c1c(C)nn(-c2ccccc2)c1C (stereo not shown) | -6.73
18 | O=C(OCC(=O)N1CCN(C(=O)COC(=O)c2ccncc2)CC1)c1ccncc1 | 15.7
19 | Cc1c(O)ccc(-c2[nH]ncc2-c2nc3ccccc3s2)c1O | 12.7
20 | O=[N+]([O-])c1ccc(N2CCN(c3nc(-c4ccc(Cl)cc4)cs3)CC2)cc1 | 8.35
21 | Cn1c(=NC(=O)CS(=O)(=O)c2ccccc2)sc2ccccc21 | 18.8
22 | Cc1cccc(NC(=O)N2CCC(n3nnc4cc(C)ccc43)CC2)c1 | 1.17

Row | SMILES | hERG current change (%, negative = inhibition) at 1uM [%]
23 | C/C(=N\NC(=O)CN(c1ccccc1Br)S(C)(=O)=O)c1ccc2c(c1)OCCO2 | -4.6
24 | COc1ccc(-c2csc(NC(=O)CN3C(=O)C4CCCCC4C3=O)n2)cc1OC (stereo not shown) | -15.5
25 | O=S(=O)(Cc1ccccc1)NCCc1cccc(Cl)c1 | 7.72
26 | O=C(Cn1cnc2cc([N+](=O)[O-])ccc2c1=O)NCc1ccc(Cl)cc1 | -1.65
27 | COC1(OC)N=C(N)C2(C#N)C(c3cccc(Oc4ccccc4)c3)C12C#N (stereo not shown) | 2.52
28 | CCn1ncc(CN2CCC(Oc3cc(C(=O)NC4CC4)ccc3OC)CC2)c1C | 1.05
29 | COc1cc(C(=O)NCc2cccc3ccccc23)cc(Cl)c1OC | 16.6
30 | Cc1onc(-c2ccccc2)c1C(=O)N=C(N)c1ccc(C(F)(F)F)cc1 | 14.6
31 | COc1ccccc1OCCNC(=O)c1cccc(S(=O)(=O)NCc2ccccc2)c1 | -9.47
32 | O=Cc1c(Sc2ccccc2)nc2ccccn2c1=O | 3.98
33 | CCOc1ccccc1NC(=O)C1CCN(S(=O)(=O)c2c(C)noc2C)CC1 | 17.4
34 | CC(=O)N1CCCN(C(=O)c2ccc3nc(Cc4ccccc4F)oc3c2)CC1 | 2.68
35 | COc1ccc(C(=O)N/C(=C\c2cn(C)c3ccccc23)C(=O)NCCCn2ccnc2)cc1 | 13.7
36 | Nc1cc(C(Cl)=C(Cl)Cl)c(S(N)(=O)=O)cc1S(N)(=O)=O | 17.7
37 | CC1CCCC(C)N1CCCNC(=O)c1cc2c(=O)n(C)c3ccccc3c2n1C (stereo not shown) | 12.8
38 | Cc1cc(C)c(OCC(=O)N/N=C/c2ccc3c(c2)OCO3)c(C)c1 | 2.67
39 | Cc1ncsc1C(=O)O | 12.3
40 | CCn1cc(CCC(=O)NC(C)c2ccccc2)c2ccccc21 (stereo not shown) | 8.93
41 | O=S(=O)(NCc1ccccn1)c1cc(OCC(F)(F)F)ccc1OCC(F)(F)F | -40.1
42 | CCN(C(=O)CSc1nncs1)c1c(N)n(Cc2ccccc2)c(=O)[nH]c1=O | 5.54
43 | COc1cc2[nH]c(=O)n(CCCCCC(=O)NCCCN3CCCC3=O)c(=O)c2cc1OC | 1.56
44 | COC(=O)c1ccc(OS(=O)(=O)N(C)C)cc1 | 16.6

Row | SMILES | hERG current change (%, negative = inhibition) at 1uM [%]
45 | Cc1nn(CCCC(=O)NCc2ccc(F)cc2)c(=O)c2nccn12 | 13
46 | CC(C)Nc1nnc(Sc2ccc(Cl)cc2[N+](=O)[O-])s1 | 2.47
47 | Cc1c(Br)c([N+](=O)[O-])nn1CC(=O)Nc1sc2c(c1C(=O)OC(C)C)CCC(C)C2 (stereo not shown) | 12.2
48 | CC(=O)c1c(C)[nH]c(C(=O)OCC(=O)Nc2ccc(Cl)c(S(=O)(=O)N(C)C)c2)c1C | -2.69
49 | O=C(CSc1ncccn1)Nn1cnnc1 | 12.2
50 | CCN1C(=O)C2(C(C#N)=C(N)Oc3cc(C)oc(=O)c32)c2ccccc21 (stereo not shown) | 8.19
51 | CC(C)n1c(-c2ccc(C(C)(C)C)cc2)n[nH]c1=S | 9.76
52 | COc1cccc2sc(=NC(=O)CCS(=O)(=O)c3ccc(C)cc3)n(C)c12 | 6.98
53 | O=C(c1ccco1)N1CCN(C(=O)N2CCCC2)CC1 | 3.55
54 | O=C1C=C(NNC(=O)c2ccccc2Br)CCC1 | 13.3
55 | Cc1ccc2oc(=O)n(Cc3ccc(OC(C)C)cc3)c2c1 | 7.16
56 | Cc1ccc(NN2C(=O)C=CC2=O)cc1 | 1.48
57 | Cc1ccc(-n2nnc3c(=O)n(CC(=O)NCc4ccccc4)cnc32)cc1 | -0.575
58 | CCc1cc(=O)oc2cc(C)cc(OCC(=O)N[C@@H](CSCc3ccccc3)C(=O)O)c12 | 11.3
59 | COc1ccc(/C=N/NC(=O)c2cccc([N+](=O)[O-])c2)cc1O | 9.41
60 | CC1CCCCN1CCCNC(=O)c1ccc(N2CCCC2=O)cc1 (stereo not shown) | 15.8
61 | COC(=O)c1c(C(=O)OC)c(C)n(Cc2cccnc2)c1C | 6.42
62 | O=c1c2cc(Br)ccc2nc(-c2cccc(C(F)(F)F)c2)n1O | 14.6
63 | COc1cccc(N2C(=O)C3NN=C(C(=O)CN4C(=O)c5ccccc5C4=O)C3C2=O)c1 (stereo not shown) | 13.1
64 | CCOc1ccc(C(CC(=O)O)NC(=O)c2sc3ccccc3c2Cl)cc1 (stereo not shown) | 9.27
65 | COc1cc(OC)c(N(C)S(=O)(=O)c2cccc(C(=O)NC(C)C3CC4CCC3C4)c2)cc1Cl (stereo not shown) | 11.2
66 | Nc1[nH]nc2ncc3cc4ccccc4nc3c12 | 16.4

Row | SMILES | hERG current change (%, negative = inhibition) at 1uM [%]
67 | Clc1ccc(Oc2nc3ccccc3n3cccc23)cc1 | 15.1
68 | O=C(CNCCC1=CCCCC1)Nc1ccccc1N1CCCCCC1.O=C(O)C(=O)O | 6.8
69 | COC(=O)c1nn(-c2cccc(C(F)(F)F)c2)ccc1=O | 8.73
70 | Cc1ccccc1CC(=O)N1CCN(C(=O)c2ccco2)CC1 | 17.9
71 | O=C(CN(Cc1ccco1)C(=O)CNS(=O)(=O)c1ccc(F)cc1)NCc1ccc(F)cc1 | -16.4
72 | COc1ccc(N(CC(=O)NC2CCCC2)S(=O)(=O)c2c(C)[nH]c(=O)[nH]c2=O)cc1 | 16.9
73 | O=C(NC(=S)Nc1ccc(Br)cn1)c1cncc(Br)c1 | 8.17
74 | O=C(CN(Cc1ccccc1)S(=O)(=O)c1ccc(F)cc1)NCCC1=CCCCC1 | 10.9
75 | CC(=O)Nc1ccc(C(=O)Nc2nc(-c3cc(C)n(Cc4ccccc4)c3C)cs2)cc1 | 11.3
76 | COc1ccccc1C(CNC(=O)CN(C)S(=O)(=O)c1ccc(C)cc1)N1CCCC1 (stereo not shown) | -8.51
77 | Cc1onc(-c2c(F)cccc2Cl)c1C(=O)N(C)C1CCCCC1 | 2.58
78 | O=C(O)c1cc2c(cc1NC(=O)c1ccccc1OC(F)F)OCCCO2 | 11.9
79 | Cc1nc2ccccc2n1CCCOc1ccccc1 | 4.19
80 | COc1cc(CNCCCN2CCOCC2)ccc1OCC(=O)NC(C)(C)C.Cl | 15.7
81 | N=c1c2c(-c3ccccc3)c(-c3ccccc3)n(Cc3ccccc3)c2ncn1CCO | 0.416
82 | Cc1c(C(=O)N2CCN(c3ccc([N+](=O)[O-])cc3)CC2)sc2ncn(CC(=O)N3CCOCC3)c(=O)c12 | 0.638
83 | COc1cc(C)nc(Oc2ccc(OCc3ccccc3)nn2)n1 | 9.37
84 | Cc1nc(SCc2cccc(F)c2)c2oc3ccccc3c2n1 | 13.9
85 | Cn1c(SCC(=O)NC2CC2)nnc1-c1ccc(Cl)cc1 | 10.2

Reference: PMC4336329 (PLoS ONE, 2015)
